# According to PubChem BioAssay (Tox21):
# The shares of active, inactive and inconclusive entries below differ from those in the screen. For part of these data: A potency beside an inconclusive call is a rough fit, not a confirmed value. The source made the active and inactive calls. Unless noted, the call rests on the fitted dose curve; in most records, active means well fitted curve in the direction sought with a large enough effect in the repeat runs; inconclusive means weak or mixed curves; inactive means no such curve, though single readings can be large; an effect the other way counts as inactive or inconclusive.
# What was measured:
# [1] = target: Estrogen receptor beta (Homo sapiens) (UniProt Q92731); assay: qHTS assay to identify small molecule agonists of the estrogen receptor beta (ER-beta) signaling pathway (AID 1259377; active means well fitted activation curve with a large enough effect in the signal ratio in the repeat runs, not every such curve was filed as active; inconclusive means weak or mixed curves, or effect the other way; the % refers to the signal ratio; further: potency means the concentration at half of the fitted maximal effect; on activation: on the % scale 0 is the no-effect control and ±100 the full control effect); settings: ER-beta-UAS-bla HEK293T, beta-lactamase FRET ratio, 16 h; activation: at 92.4 µM (top of the series) unless noted
# Method in brief: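 Agonist mode cell assay in GripTite HEK293T cells expressing an ER-beta fusion that drives beta-lactamase from an Upstream Activator Sequence; 16 hr compound exposure at 37C, then 2 h LiveBLAzer B/G FRET substrate at room temperature, fluorescence read-out.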
# [2] = target: Estrogen receptor beta (Homo sapiens) (UniProt Q92731); assay: qHTS assay to identify small molecule antagonists of the estrogen receptor beta (ER-beta) signaling pathway (AID 1259378; active means well fitted inhibition curve with a large enough effect in the signal ratio in the repeat runs, not every such curve was filed as active; inconclusive means weak or mixed curves, or effect the other way; inactive means no such curve, though single readings can be large or run the other way; the % refers to the signal ratio; further: potency means the concentration at half of the fitted maximal effect; on activity, negative = inhibition: on the % scale 0 is the no-effect control and ±100 the full control effect); settings: ER-beta-UAS-bla HEK293T, beta-lactamase FRET ratio, 16 h; activity, negative = inhibition: at 92.4 µM (top of the series) unless noted
# Method in brief: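 ER-beta-UAS-bla HEK293T (GripTite) cells in 2% charcoal-stripped FBS medium were preincubated 6 hr at 37C, dosed with compound, then stimulated with 1 nM E2 (final) for 16 hr; beta-lactamase reporter read by B/G FRET fluorescence after 2 hr substrate loading.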
# [3] = qHTS assay to identify small molecule agonists of the estrogen receptor alpha (ER-alpha) signaling pathway in the presence of an antagonist - cell viability counter screen (AID 1259386); settings: VM7Luc4E2 viability, CellTiter-Fluor fluorescence, 22 h; series mostly up to 92.4 µM;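 further: potency means the concentration at half of the fitted maximal effect; cells exposed to compounds for 22 h at 37 °C before the viability read; nearly all actives have a fitted effect of over 30% in size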
# Method in brief: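 Fluorescent CellTiter-Fluor viability signal from VM7Luc4E2 cells, with the reagent added during the final hour of a 22hr compound exposure at 37C in the presence of 10.0nM ICI-182,780.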
# [4] = target: Progesterone receptor (Homo sapiens) (UniProt P06401); assay: qHTS assay to identify small molecule antagonists of the progesterone receptor (PR) signaling pathway (AID 1346795; active means well fitted inhibition curve with a large enough effect in the signal ratio in the repeat runs, not every such curve was filed as active; inconclusive means weak or mixed curves; the % refers to the signal ratio; further: potency means the concentration at half of the fitted maximal effect; on activity change, negative = inhibition: on the % scale 0 is the no-effect control and ±100 the full control effect); settings: PR-UAS-bla HEK293T, beta-lactamase FRET ratio, 16 h; activity change, negative = inhibition: at 92.4 µM (top of the series) unless noted
# Method in brief: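 Antagonist mode: compounds tested against 1 nM (final) promegestone stimulation in HEK293T cells expressing PR-UAS-bla reporter, 16 hr at 37C, 5% CO2; beta-lactamase activity detected via B/G FRET substrate after 2 hr at room temperature.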
# [5] = qHTS assay to identify small molecule agonists of the progesterone receptor (PR) signaling pathway - cell viability counter screen (AID 1346799; calls by dose curve; further: potency means the concentration at half of the fitted maximal effect; nearly all actives have a fitted effect of over 45% in size); settings: PR-UAS-bla HEK293T viability, CellTiter-Glo luminescence, 16 h; series mostly up to 92.4 µM
# Method in brief: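 Cells (PR-UAS-bla HEK293T) are plated at 3,000/well in 2% charcoal-stripped FBS medium, rested 6 hr, dosed and incubated 16 hr at 37C. CellTiter-Glo is then added and luminescence measured after 30 min at room temperature.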
# [6] = qHTS assay to identify small molecule agonists of the estrogen receptor beta (ER-beta) signaling pathway - cell viability counter screen (AID 1259380); settings: ER-beta-bla HEK293T viability, CellTiter-Glo luminescence, 16 h; series mostly up to 92.4 µM; further: on the % scale 0 is the no-effect control and ±100 the full control effect; nearly all actives have a fitted effect of over 30% in size
# Method in brief: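 Viability of ER-beta-UAS-bla HEK293T cells was determined by CellTiter-Glo luminescence following 16 hr treatment with test compounds at 37C.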
# [7] = qHTS assay to identify small molecule antagonists of the estrogen receptor beta (ER-beta) signaling pathway - cell viability counter screen (AID 1259382); settings: ER-beta-UAS-bla HEK293T viability, CellTiter-Glo luminescence, 16 h; series mostly up to 92.4 µM; further: potency means the concentration at half of the fitted maximal effect; nearly all actives have a fitted effect of over 55% in size
# Method in brief: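 Tox21 10K library tested in qHTS format on ER-beta-bla HEK293T cells stimulated with 1nM E2; 16 hr treatment at 37C. Same-well CellTiter-Glo luminescence served as the cell viability measure.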
# [8] = target: Progesterone receptor (Homo sapiens) (UniProt P06401); assay: qHTS assay to identify small molecule agonists of the progesterone receptor (PR) signaling pathway (AID 1346784; calls by dose curve; further: potency means the concentration at half of the fitted maximal effect; nearly all actives have a fitted effect of over 30% in size); settings: PR-UAS-bla HEK293T, beta-lactamase FRET ratio, 16 h; activation: at 92.4 µM (top of the series) unless noted
# Method in brief: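 Cells (PR-UAS-bla HEK 293T, GripTite) were plated in assay medium containing 2% charcoal-stripped FBS and incubated 6 hr. Test compounds in DMSO were added for 16 hr at 37C. FRET substrate was then loaded for 2 hr at room temperature before fluorescence reading.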
# [9] = qHTS assay to identify small molecule antagonists of the progesterone receptor (PR) signaling pathway - cell viability counter screen (AID 1346798); settings: PR-UAS-bla HEK293T viability, CellTiter-Glo luminescence, 16 h; series mostly up to 92.4 µM; further: potency means the concentration at half of the fitted maximal effect; nearly all actives have a fitted effect of over 50% in size
# Method in brief: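 Counter screen for cytotoxicity: viability of PR-UAS-bla HEK293T cells was measured with CellTiter-Glo luminescence following 16 hr compound exposure in the presence of R5020.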
# [10] = target: Thyrotropin receptor (Homo sapiens) (UniProt P16473); assay: qHTS assay to identify small molecule antagonists of the thyroid stimulating hormone receptor (TSHR) signaling pathway (AID 1259385; calls by dose curve; further: on the % scale 0 is the no-effect control and ±100 the full control effect; nearly all actives have a fitted effect of over 20% in size); settings: TSHR-HEK293 cAMP HTRF, TSH-stimulated antagonist mode; activity change, negative = inhibition: at 92.4 µM (top of the series) unless noted
# Method in brief: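 TSHR-HEK293 cells were plated and held 18 h at 37C/5% CO2, then given compound plus Ro20-1724 and stimulated with TSH at 1.5 ng/mL final. After 30 min at room temperature, cAMP was detected with cAMP-d2/anti-cAMP-cryptate (1 h) by fluorescence.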
# Tags describe the fitted curve by direction and shape or compound fluorescence and quenching.
# Chain of UniProt Q92731 (Q92731 whole entry, looked up, the tested form may be a part): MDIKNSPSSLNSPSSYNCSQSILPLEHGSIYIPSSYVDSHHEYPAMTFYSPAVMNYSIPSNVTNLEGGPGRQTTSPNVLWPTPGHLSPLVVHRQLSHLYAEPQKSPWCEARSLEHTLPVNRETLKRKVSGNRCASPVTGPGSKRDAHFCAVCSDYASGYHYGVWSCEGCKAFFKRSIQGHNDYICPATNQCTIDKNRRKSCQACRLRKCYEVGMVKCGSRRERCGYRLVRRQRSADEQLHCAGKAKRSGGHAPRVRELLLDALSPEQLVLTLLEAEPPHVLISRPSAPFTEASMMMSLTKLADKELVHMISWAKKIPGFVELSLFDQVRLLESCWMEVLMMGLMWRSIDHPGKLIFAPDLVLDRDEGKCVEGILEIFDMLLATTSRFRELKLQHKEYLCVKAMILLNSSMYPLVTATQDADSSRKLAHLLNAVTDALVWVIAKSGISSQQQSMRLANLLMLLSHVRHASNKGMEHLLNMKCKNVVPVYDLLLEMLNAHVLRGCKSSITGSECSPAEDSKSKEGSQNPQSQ
# Chain of UniProt P06401 (P06401 whole entry, looked up): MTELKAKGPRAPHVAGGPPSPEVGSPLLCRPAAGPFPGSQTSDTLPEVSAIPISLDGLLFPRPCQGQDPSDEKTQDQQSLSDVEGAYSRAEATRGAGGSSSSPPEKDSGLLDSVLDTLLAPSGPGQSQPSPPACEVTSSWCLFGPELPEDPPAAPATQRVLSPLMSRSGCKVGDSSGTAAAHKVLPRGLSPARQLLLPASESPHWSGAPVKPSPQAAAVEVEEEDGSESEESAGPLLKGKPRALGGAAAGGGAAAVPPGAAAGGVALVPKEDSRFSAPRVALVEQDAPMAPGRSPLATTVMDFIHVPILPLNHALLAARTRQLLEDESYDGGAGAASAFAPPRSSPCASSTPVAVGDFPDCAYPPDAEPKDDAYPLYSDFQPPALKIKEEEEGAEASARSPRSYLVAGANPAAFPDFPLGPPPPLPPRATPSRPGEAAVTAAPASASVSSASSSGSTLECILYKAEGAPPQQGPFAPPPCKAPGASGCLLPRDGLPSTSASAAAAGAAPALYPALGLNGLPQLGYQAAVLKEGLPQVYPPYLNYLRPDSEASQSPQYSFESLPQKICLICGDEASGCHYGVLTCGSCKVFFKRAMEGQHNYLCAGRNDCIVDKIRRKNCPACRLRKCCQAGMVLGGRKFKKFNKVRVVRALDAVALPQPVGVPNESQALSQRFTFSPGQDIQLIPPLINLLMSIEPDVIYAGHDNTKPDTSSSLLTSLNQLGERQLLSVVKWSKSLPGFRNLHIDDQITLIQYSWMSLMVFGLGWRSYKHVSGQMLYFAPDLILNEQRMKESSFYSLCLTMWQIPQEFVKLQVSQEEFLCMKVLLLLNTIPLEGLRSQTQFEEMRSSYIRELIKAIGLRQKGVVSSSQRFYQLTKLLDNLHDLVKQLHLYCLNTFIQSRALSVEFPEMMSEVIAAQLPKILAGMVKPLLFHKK
# Chain of UniProt P16473 (P16473 whole entry, looked up): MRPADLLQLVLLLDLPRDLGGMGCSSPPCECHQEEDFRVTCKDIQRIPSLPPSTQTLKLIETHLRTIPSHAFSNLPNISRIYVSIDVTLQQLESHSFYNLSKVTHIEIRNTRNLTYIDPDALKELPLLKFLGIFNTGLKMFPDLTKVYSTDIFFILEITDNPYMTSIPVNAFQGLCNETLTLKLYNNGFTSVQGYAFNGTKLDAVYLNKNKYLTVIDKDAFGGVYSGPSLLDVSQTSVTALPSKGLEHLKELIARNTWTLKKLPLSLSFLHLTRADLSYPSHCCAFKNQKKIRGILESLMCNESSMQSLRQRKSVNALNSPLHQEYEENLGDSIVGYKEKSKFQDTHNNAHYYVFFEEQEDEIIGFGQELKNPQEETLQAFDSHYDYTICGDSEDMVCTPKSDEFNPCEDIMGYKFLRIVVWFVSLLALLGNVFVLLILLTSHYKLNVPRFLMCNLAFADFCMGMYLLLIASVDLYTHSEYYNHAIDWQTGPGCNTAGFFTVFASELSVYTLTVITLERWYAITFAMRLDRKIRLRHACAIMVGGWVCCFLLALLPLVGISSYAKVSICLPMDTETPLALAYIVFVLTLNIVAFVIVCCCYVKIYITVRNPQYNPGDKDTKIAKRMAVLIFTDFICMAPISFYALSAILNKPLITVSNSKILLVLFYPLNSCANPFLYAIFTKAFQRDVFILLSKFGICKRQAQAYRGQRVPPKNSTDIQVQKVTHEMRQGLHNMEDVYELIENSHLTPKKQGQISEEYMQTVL
compound,measurement,setting,value
CCCC1C(CC)=CC(CC)=CN1c1ccccc1 (configuration not stated),Potency,[1],inactive
same,"activity, negative = inhibition",[2],inconclusive: -29.9%
same,Potency,[3],inconclusive: 61.1 µM [cytotoxic]
same,Potency,[4],active: 27.3 µM
same,Potency,[5],"inconclusive: 68.6 µM [rising, single point]"
CC1CC(OC(=O)C(O)c2ccccc2)CC(C)(C)N1C (configuration not stated),Potency,[1],inactive
same,Potency,[6],inactive
CCOC(=O)c1ccccc1C(=C1C=C(Br)C(=O)C(Br)=C1)c1cc(Br)c(O)c(Br)c1,Potency,[1],"inconclusive: 51.3 µM [rising, single point]"
same,Potency,[2],"inconclusive: 51.3 µM [rising, partial curve]"
same,Potency,[7],"inconclusive: 57.5 µM [cytotoxic, single point]"
same,Potency,[8],"inconclusive: 20.4 µM [cytotoxic, single point]"
same,Potency,[4],active: 18.2 µM
same,Potency,[9],"inconclusive: 45.7 µM [cytotoxic, single point]"
same,Potency,[5],"inconclusive: 14.5 µM [rising, partial curve]"
O=C(CC(=O)c1ccccc1)c1ccccc1,activation,[1],inconclusive: 6.28%
same,"activity, negative = inhibition",[2],inconclusive: -12.1%
same,Potency,[4],active: 65.7 µM
CC(=O)C(C)=O,activation,[1],inconclusive: 11.7%
same,"activity, negative = inhibition",[2],inconclusive: 28.7%
same,"activity change, negative = inhibition",[4],inconclusive: 7.15%
same,Potency,[9],"inconclusive: 69.1 µM [rising, single point]"
N#CCCCC(C#N)CCC#N (configuration not stated),activation,[1],inconclusive: 10.1%
same,Potency,[2],"inconclusive: 0.611 µM [inhibitor, single point]"
same,Potency,[4],inactive
O=C(OCC(COC(=O)c1cccnc1)(COC(=O)c1cccnc1)COC(=O)c1cccnc1)c1cccnc1,Potency,[1],inactive
same,"activity, negative = inhibition",[2],inconclusive: 23.3% [at 42.5 µM]
same,"activity change, negative = inhibition",[10],inconclusive: -12.8% [at 42.5 µM]
